Each structure is given as a SMILES string. This is one part of the list. Single values are uncertain, as repeats are few or missing.
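Also: cells treated in 1,536-well plates, then fixed and DAPI-stained, with nuclei counted from automated high-throughput microscope images.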

The assay deals with A2058. The experiment in a line: cell count relative to DMSO control; melanoma cells; higher = more viable cells. The following applies: library dose: standard library concentration; 72 h.
`O=C(O)c1ccc2c(c1)nc(Nc1cccc(Cl)c1)c1ccncc12` + CC(C)(C)c1cnc(CSc2cnc(NC(=O)C3CCNCC3)s2)o1 [SNS-032] (first compound 2 µM, partner dose 0.05 µM) came in with a cell count of 66.3%.

On to `O=C(Nc1cc(C(F)(F)F)cc(C(F)(F)F)c1)c1cc(Cl)ccc1O` + O=C(O)c1ccc2c(c1)nc(Nc1cccc(Cl)c1)c1ccncc12 [CX4945] (first compound 0.08 µM, partner dose 2 µM), for which the cell count was 100%.

In the case of `Cn1nnc2c(C(N)=O)ncn2c1=O` [temozolomide] + COc1cc2c(Oc3ccc4[nH]c(C)cc4c3F)ncnc2cc1OCCCN1CCCC1 [cediranib] (first compound 10 µM, partner dose 2 µM), the cell count came to 47.6%.

Consider `O=C(Nc1cc(C(F)(F)F)cc(C(F)(F)F)c1)c1cc(Cl)ccc1O` + Clc1ccc(Nc2nnc(Cc3ccncc3)c3ccccc23)cc1 [vatalanib] (first compound 0.08 µM, partner dose 10 µM), for which the cell count was found to be 87.4%.

Turning to `O=C(O)c1ccc2c(c1)nc(Nc1cccc(Cl)c1)c1ccncc12` + Oc1cc(-c2nc(-c3ccccc3)[nH]c2-c2ccncc2)ccc1Cl [L779450] (first compound 2 µM, partner dose 1 µM), the cell count amounted to 73.2%.

As for `O=C(O)c1ccc2c(c1)nc(Nc1cccc(Cl)c1)c1ccncc12` + O=C(Nc1cccc(Cl)c1)Nc1ncc(CCNc2ncnc3ccsc23)s1 [SNS314] (first compound 2 µM, partner dose 0.004 µM), the cell count is 56.1%.

The values are drawn from the supplement of paper PMC4604168 (melanoma cell lines).
